What all share (experiment): cell count relative to DMSO control; melanoma cells; higher = more viable cells
What all share (settings): library dose: low library concentration; 72 h

The subject of assay [1] is WM115.
In assay [2] the test system is WM1716.
Assay [3] concerns WM1745.
In assay [4] the test system is WM3526.
Assay [5] has as its system WM3619.
Assay [6] relates to WM451Lu.

Experimental findings from the supplement of paper PMC4604168 (melanoma cell lines) are described below.

The other results are listed elsewhere or left out. Single values are uncertain, as repeats are few or missing.
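Note: cell number obtained by counting DAPI-stained nuclei in high-throughput microscope images with image analysis software, screen run in 1,536-well plates.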

For `N#CC[C@H](C1CCCC1)n1cc(-c2ncnc3[nH]ccc23)cn1` [ruxolitinib] + Cn1c(Nc2ccc(C(F)(F)F)cc2)nc2cc(Oc3ccnc(-c4ncc(C(F)(F)F)[nH]4)c3)ccc21 [CHIR265] (first compound 1 µM, partner dose 0.08 µM), the cell count worked out at 71.9% in assay [1]; 82.5% in assay [2]; 81.6% in assay [3]; 70.7% in assay [4]; 94% in assay [5]; 83% in assay [6].

For the molecule `CC[C@]1(O)C[C@H]2CN(CCc3c([nH]c4ccccc34)[C@@](C(=O)OC)(c3cc4c(cc3OC)N(C=O)[C@H]3[C@@](O)(C(=O)OC)[C@H](OC(C)=O)[C@]5(CC)C=CCN6CC[C@]43[C@@H]65)C2)C1` [vincristine] + COc1ccc(Cl)c(Nc2nc3ccccc3nc2NS(=O)(=O)c2cccc(NC(=O)C(C)(C)N)c2)c1 [XL147] (first compound 0.0001 µM, partner dose 0.8 µM), the cell count amounted to 58.6% in assay [1]; 46.4% in assay [2]; 84.7% in assay [3]; 88.2% in assay [4]; 66.8% in assay [5]; 57.8% in assay [6].

As to `CC[C@]1(O)C[C@H]2CN(CCc3c([nH]c4ccccc34)[C@@](C(=O)OC)(c3cc4c(cc3OC)N(C=O)[C@H]3[C@@](O)(C(=O)OC)[C@H](OC(C)=O)[C@]5(CC)C=CCN6CC[C@]43[C@@H]65)C2)C1` [vincristine] + NC(=O)c1ccc(N(C(N)=O)c2c(F)cccc2F)nc1-c1ccc(F)cc1F [VX702] (first compound 0.0001 µM, partner dose 0.4 µM), the cell count turned out to be 69.2% in assay [1]; 60.9% in assay [2]; 94.2% in assay [3]; 85.5% in assay [4]; 47% in assay [5]; 48.8% in assay [6].

Take `CC[C@]1(O)C[C@H]2CN(CCc3c([nH]c4ccccc34)[C@@](C(=O)OC)(c3cc4c(cc3OC)N(C=O)[C@H]3[C@@](O)(C(=O)OC)[C@H](OC(C)=O)[C@]5(CC)C=CCN6CC[C@]43[C@@H]65)C2)C1` [vincristine] + COc1cc2ncnc(Nc3ccc(Oc4ccccc4)cc3)c2cc1OC [SrcI1] (first compound 0.0001 µM, partner dose 2 µM): the cell count turned out to be 24.4% in assay [1]; 32.3% in assay [2]; 69.9% in assay [3]; 40.7% in assay [4]; 44.5% in assay [5]; 32.6% in assay [6].

In the case of `N#CC[C@H](C1CCCC1)n1cc(-c2ncnc3[nH]ccc23)cn1` [ruxolitinib] + CC1(C)CCC(c2ccc(Cl)cc2)=C(CN2CCN(c3ccc(C(=O)NS(=O)(=O)c4ccc(N[C@H](CCN5CCOCC5)CSc5ccccc5)c(S(=O)(=O)C(F)(F)F)c4)cc3)CC2)C1 [ABT263] (first compound 1 µM, partner dose 0.4 µM), the cell count in assay [1] was 95.6%; in assay [2], 88%; in assay [3], 23.7%; in assay [4] it was 90.1%; in assay [5], 79.6%; in assay [6] it was 70.6%.

Take `CC[C@]1(O)C[C@H]2CN(CCc3c([nH]c4ccccc34)[C@@](C(=O)OC)(c3cc4c(cc3OC)N(C=O)[C@H]3[C@@](O)(C(=O)OC)[C@H](OC(C)=O)[C@]5(CC)C=CCN6CC[C@]43[C@@H]65)C2)C1` [vincristine] + CS(=O)(=O)CCNCc1ccc(-c2ccc3ncnc(Nc4ccc(OCc5cccc(F)c5)c(Cl)c4)c3c2)o1 [lapatinib] (first compound 0.0001 µM, partner dose 0.8 µM): the cell count in assay [1] stood at 41.7%; in assay [2], 45.2%; in assay [3] it was 82.6%; in assay [4], 61.5%; in assay [5], 46.8%; in assay [6], 55.6%.

As for `N#CC[C@H](C1CCCC1)n1cc(-c2ncnc3[nH]ccc23)cn1` [ruxolitinib] + CC1(C)NC(=O)N(c2ccc([N+](=O)[O-])c(C(F)(F)F)c2)C1=O [nilutamide] (first compound 1 µM, partner dose 1 µM), the cell count in assay [1] was determined as 103%; in assay [2], 103%; in assay [3], 88.8%; in assay [4], 111%; in assay [5] it was 94.7%; in assay [6], 125%.

Turning to `CC[C@]1(O)C[C@H]2CN(CCc3c([nH]c4ccccc34)[C@@](C(=O)OC)(c3cc4c(cc3OC)N(C=O)[C@H]3[C@@](O)(C(=O)OC)[C@H](OC(C)=O)[C@]5(CC)C=CCN6CC[C@]43[C@@H]65)C2)C1` [vincristine] + O=C(O)c1ccc(-c2c[nH]c3ncc(-c4ccccc4)cc23)cc1C1CCCC1 [GSK650394] (first compound 0.0001 µM, partner dose 0.16 µM), the cell count in assay [1] turned out to be 41%; in assay [2] it was 37.2%; in assay [3] it was 84.9%; in assay [4], 48%; in assay [5], 60%; in assay [6] it was 54.7%.

Consider `N#CC[C@H](C1CCCC1)n1cc(-c2ncnc3[nH]ccc23)cn1` [ruxolitinib] + OCc1c[nH]c2ccccc12 [Indole-3-carbinol] (first compound 1 µM, partner dose 0.8 µM), for which the cell count in assay [1] amounted to 97.8%; in assay [2] it was 97%; in assay [3], 89.3%; in assay [4], 95.7%; in assay [5] it was 80.3%; in assay [6], 94.3%.

As to `Cc1cc(Nc2cc(N3CCN(C)CC3)nc(Sc3ccc(NC(=O)C4CC4)cc3)n2)n[nH]1` [Tozasertib] + CO[C@H]1C[C@@H]2CC[C@@H](C)[C@@](O)(O2)C(=O)C(=O)N2CCCC[C@H]2C(=O)O[C@H]([C@H](C)C[C@@H]2CC[C@@H](OCCO)[C@H](OC)C2)CC(=O)[C@H](C)/C=C(\C)[C@@H](O)[C@@H](OC)C(=O)[C@H](C)C[C@H](C)/C=C/C=C/C=C/1C [everolimus] (first compound 0.006 µM, partner dose 0.02 µM), the cell count in assay [1] stood at 75%; in assay [2], 62.3%; in assay [3], 66.9%; in assay [4], 70.3%; in assay [5], 78.4%; in assay [6] it was 99.1%.

Take `CC[C@]1(O)C[C@H]2CN(CCc3c([nH]c4ccccc34)[C@@](C(=O)OC)(c3cc4c(cc3OC)N(C=O)[C@H]3[C@@](O)(C(=O)OC)[C@H](OC(C)=O)[C@]5(CC)C=CCN6CC[C@]43[C@@H]65)C2)C1` [vincristine] + COc1ccc2c(c1)CCC1C2CCC2(C)C(NCCCCCCN3C(=O)C=CC3=O)CCC12 [U73122] (first compound 0.0001 µM, partner dose 0.4 µM): the cell count in assay [1] was determined as 66.3%; in assay [2], 48.6%; in assay [3], 97.7%; in assay [4] it was 88.2%; in assay [5], 84.2%; in assay [6] it was 89.8%.

As for `CC[C@]1(O)C[C@H]2CN(CCc3c([nH]c4ccccc34)[C@@](C(=O)OC)(c3cc4c(cc3OC)N(C=O)[C@H]3[C@@](O)(C(=O)OC)[C@H](OC(C)=O)[C@]5(CC)C=CCN6CC[C@]43[C@@H]65)C2)C1` [vincristine] + OCc1c[nH]c2ccccc12 [Indole-3-carbinol] (first compound 0.0001 µM, partner dose 0.8 µM), the cell count in assay [1] amounted to 49.6%; in assay [2] it was 39.9%; in assay [3], 78.6%; in assay [4], 74.4%; in assay [5] it was 43.5%; in assay [6] it was 53.6%.

With `Cc1cc(Nc2cc(N3CCN(C)CC3)nc(Sc3ccc(NC(=O)C4CC4)cc3)n2)n[nH]1` [Tozasertib] + COc1ccc(-c2ccc3c(N4CCOCC4)nc(N4C[C@@H](C)O[C@@H](C)C4)nc3n2)cc1CO [KU0063794] (first compound 0.006 µM, partner dose 0.02 µM), the cell count in assay [1] turned out to be 77.5%; in assay [2] it was 86.7%; in assay [3], 91.5%; in assay [4], 83.4%; in assay [5], 109%; in assay [6], 93.4%.

As to `N#CC[C@H](C1CCCC1)n1cc(-c2ncnc3[nH]ccc23)cn1` [ruxolitinib] + O=C1NC(=O)/C(=C/c2ccc(-c3ccc(F)cc3O)o2)S1 [AS252424] (first compound 1 µM, partner dose 1 µM), the cell count in assay [1] was 114%; in assay [2] it was 104%; in assay [3], 96.7%; in assay [4], 113%; in assay [5], 98.8%; in assay [6], 111%.

`CC[C@]1(O)C[C@H]2CN(CCc3c([nH]c4ccccc34)[C@@](C(=O)OC)(c3cc4c(cc3OC)N(C=O)[C@H]3[C@@](O)(C(=O)OC)[C@H](OC(C)=O)[C@]5(CC)C=CCN6CC[C@]43[C@@H]65)C2)C1` [vincristine] + Cn1cnc2c(F)c(Nc3ccc(Br)cc3Cl)c(C(=O)NOCCO)cc21 [selumetinib] (first compound 0.0001 µM, partner dose 0.015 µM): the cell count stood at 48.8% in assay [1]; 54.4% in assay [2]; 86.6% in assay [3]; 74.4% in assay [4]; 47.7% in assay [5]; 65.2% in assay [6].

In the case of `CC[C@]1(O)C[C@H]2CN(CCc3c([nH]c4ccccc34)[C@@](C(=O)OC)(c3cc4c(cc3OC)N(C=O)[C@H]3[C@@](O)(C(=O)OC)[C@H](OC(C)=O)[C@]5(CC)C=CCN6CC[C@]43[C@@H]65)C2)C1` [vincristine] + Oc1nc(-c2ccc(C(F)(F)F)cc2)nc2c1CSCC2 [XAV939] (first compound 0.0001 µM, partner dose 2 µM), the cell count turned out to be 60.7% in assay [1]; 32.8% in assay [2]; 73.7% in assay [3]; 62.9% in assay [4]; 63.1% in assay [5]; 65.7% in assay [6].

Take `Cc1cc(Nc2cc(N3CCN(C)CC3)nc(Sc3ccc(NC(=O)C4CC4)cc3)n2)n[nH]1` [Tozasertib] + Cn1nnc2c(C(N)=O)ncn2c1=O [temozolomide] (first compound 0.006 µM, partner dose 2 µM): the cell count in assay [1] came to 86.6%; in assay [2], 75.2%; in assay [3] it was 94.6%; in assay [4] it was 78.3%; in assay [5] it was 90.2%; in assay [6], 87.1%.

On to `CC[C@]1(O)C[C@H]2CN(CCc3c([nH]c4ccccc34)[C@@](C(=O)OC)(c3cc4c(cc3OC)N(C=O)[C@H]3[C@@](O)(C(=O)OC)[C@H](OC(C)=O)[C@]5(CC)C=CCN6CC[C@]43[C@@H]65)C2)C1` [vincristine] + O=C1NC(=O)/C(=C/c2ccc(-c3ccc(F)cc3O)o2)S1 [AS252424] (first compound 0.0001 µM, partner dose 1 µM), for which the cell count in assay [1] was found to be 60%; in assay [2], 41.7%; in assay [3], 85.4%; in assay [4], 75.4%; in assay [5], 93.3%; in assay [6], 62.7%.

For `Cc1cc(Nc2cc(N3CCN(C)CC3)nc(Sc3ccc(NC(=O)C4CC4)cc3)n2)n[nH]1` [Tozasertib] + Cc1cc([N+](=O)[O-])ccc1NS(=O)(=O)c1cc(Cl)ccc1Cl [FH535] (first compound 0.006 µM, partner dose 1 µM), the cell count was 82.2% in assay [1]; 77.7% in assay [2]; 80.6% in assay [3]; 80.6% in assay [4]; 114% in assay [5]; 102% in assay [6].

With `Cc1cc(Nc2cc(N3CCN(C)CC3)nc(Sc3ccc(NC(=O)C4CC4)cc3)n2)n[nH]1` [Tozasertib] + Oc1nc(-c2ccc(C(F)(F)F)cc2)nc2c1CSCC2 [XAV939] (first compound 0.006 µM, partner dose 2 µM), the cell count in assay [1] was 83.3%; in assay [2], 60.8%; in assay [3] it was 72.5%; in assay [4], 92.9%; in assay [5], 83.5%; in assay [6], 76.1%.
